# Assay results published in PMC12136788.
# The other results are listed elsewhere or left out.
# T1: UNK ZnF1-3 (human, UniProt Q9C0B0 31-174)
# T1 sequence: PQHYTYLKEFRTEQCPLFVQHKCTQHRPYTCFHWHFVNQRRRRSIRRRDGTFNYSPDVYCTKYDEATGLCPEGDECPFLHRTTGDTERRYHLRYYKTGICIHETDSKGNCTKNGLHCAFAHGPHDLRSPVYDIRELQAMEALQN
# B1: chr17:88379672:88379673:+_ENSMUSG00000005370_ENSMUST00000005503|mus_mus|motif|central (ssRNA)
# RNA: GGGAGUUCUACAGUCCGACGAUCUCCCUUUUGGGCUUCCUUUGACUUUGAACCUGUAUAUGGCUUUAACAUCCUUUUGCGGACCCAGCCCCUUGUUGGGCUGUCAUCAAAGAACUGUACAUGAACACGGACAGAUUUCCCUUUCAACAGAGGAUUGAGCAUCA
# B2: chr18:43795804:43795805:+_ENSG00000152242_ENST00000321319|hu_mus|FALSE|FALSE (ssRNA)
# RNA: GGGAGUUCUACAGUCCGACGAUCCUCCUCCAUCUUCAUCUCAGAAUUCCAAAUUAAAUCAUGGAACGGAGUCUAGGAAACGAUAUCAAAGGUGCAACAGGGAAGCAGCCUGCGCCCCGCCGUCCGCGCCUCCUCGCCGGCCCCCAACAGAGGAUUGAGCAUCA
# B3: 151522430_151522550_435_CDS_ENSMUSG00000034021_ENSMUST00000016569|mouse|control|control (ssRNA)
# RNA: GGGAGUUCUACAGUCCGACGAUCAAUAUCAGCAAGGCAGCAAGCCACCAGUAAACGAACAUCUUUAUCAGGAUGCUUGAGGAAGAAGUCAGAAGCAAGAUGUAAAGCUAGGUUUAGAUAAAGUUCCUUUUCCUCUUCAGAGUCCAACAGAGGAUUGAGCAUCA
# B4: 103134005_103134125_2386_CDS_ENSMUSG00000033014_ENSMUST00000106860|mouse|control|control (ssRNA)
# RNA: GGGAGUUCUACAGUCCGACGAUCACUGUGCCUGGGGAUCCCUGGUAUUCUGGCAGCAUUCUGAGCCAGUCUCAUUUGAUGGGCUUGAAAUGCUCCACAGUUCAUGUUGCCUCUUUGCAUUGUUUGCACACUGAUCAAUCUUGGCAACAGAGGAUUGAGCAUCA
# B5: chr11:87044496:87044497:-_ENSMUSG00000046442_ENSMUST00000055438|mus_mus|motif|central (ssRNA)
# RNA: GGGAGUUCUACAGUCCGACGAUCGCAUGGAAUAUCAUUACGCUUUCUGAUCUUCACAUUUCCACUAUAUCCUUCCCAACGGUUUUCCCUCCAUGGCAAAGAACUUCUUAACAUCUUGUUUCUCUUCCCACUUCGAGUAAGUGACAACAGAGGAUUGAGCAUCA
# B6: chr4:115894766:115894767:+_ENSMUSG00000028698_ENSMUST00000030464|mus_hu|mus_mus_mus_hu_True|8_28 (ssRNA)
# RNA: GGGAGUUCUACAGUCCGACGAUCUUCCACACGGAAAUGUACUUCGGGUUUUCCAACGGCCAGUACCAGUCCGGCCAAACUACCCGAACAGGGUCCUCCCCCUCUCUUCUCUCCUCCACAACAAAAUAACAAAAUACUUUCAAGCAACAGAGGAUUGAGCAUCA
# B7: chr2:117004238:117004239:+_ENSMUSG00000027351_ENSMUST00000028829|mus_mus|FALSE|FALSE (ssRNA)
# RNA: GGGAGUUCUACAGUCCGACGAUCUUAACUACUCAACACAUAUGGAAUGUGGUGGCAGAUAUGUGCACAUCUACCUCAGAACUAGGAAGGGCAAGAAAAGUUUAAUAUGUCAUAGUUCGUACCUUACAUUUAGUUAAAUAUAAACAACAGAGGAUUGAGCAUCA
# B8: chr6:86333760:86333761:-_ENSG00000135316_ENST00000355238|hu_mus|hu_hu_hu_mus_True|18_18 (ssRNA)
# RNA: GGGAGUUCUACAGUCCGACGAUCUUCCUCAAGAAUCUGCUCCUUGGUUUUACUCUUAGGAAUCGAGCCCACAAAAAGCCUAUUGUUGGCAACUGAGAUGCAGACACCAAUGUGCUUUCCAGAACGAAUUUCAUGAUUAUUAUACAACAGAGGAUUGAGCAUCA
# B9: chr11:18422405:18422406:+_ENSG00000134333_ENST00000379412|hu_hu|FALSE|FALSE (ssRNA)
# RNA: GGGAGUUCUACAGUCCGACGAUCCAGCUUGGAGUUUGCAGUUACAUUAUAGUCUUUGCCAGAGACAAUCUUUGGUGUUCUAAGGAAAAGGCUGCCAUGUUGGAGAUCCAUCAUCUCUCCCUUCAAUUUGUCUUCGAUGACAUCCAACAGAGGAUUGAGCAUCA
# B10: 134633536_134633656_1219_CDS_ENSMUSG00000042423_ENSMUST00000048896|mouse|control|control (ssRNA)
# RNA: GGGAGUUCUACAGUCCGACGAUCUGGUGGUGGAGGAGCCAAACGGCUGUAUAGCAGUGGAUGAGCAGGGUCUAGACUAUAGAGGCGGGCAGCAGCCAUGGCCCCUGGUCCAGUCAACUCCUCACCUGCCUCAUAGAAGCGUGGCAACAGAGGAUUGAGCAUCA
# B11: chr4:140556289:140556290:+_ENSMUSG00000036622_ENSMUST00000037055|mus_mus|mus_mus_mus_hu_False|48_58 (ssRNA)
# RNA: GGGAGUUCUACAGUCCGACGAUCGAUGGAGCUCACCAGGCCCCCUUUUGCCGUGCAGAACCCUGUGCGGGUCACCACUGCUAGCACACGGGGUCCCACAUAGGCCCGGGCCUGCAAGAUGAGGGUCCCGCAGAAGAGUGUGUGCAACAGAGGAUUGAGCAUCA
# B12: 78622650_78622770_146_3pUTR_ENSG00000078596_ENST00000373298|human|control|control (ssRNA)
# RNA: GGGAGUUCUACAGUCCGACGAUCACGUCUUGCCGCGCCUCCUCCUUUUGCACGGCGGUAGGGGUAUUGAAGGCGAUUUUCACCAUAGUGAAUCUUCGGGCUGCGCGGUAAGGCGCUGCUGGAAUCAGCGUCCUGGGCUGCAGACAACAGAGGAUUGAGCAUCA
# B13: chr16:46732117:46732118:+_ENSG00000091651_ENST00000219097|hu_hu|motif|central (ssRNA)
# RNA: GGGAGUUCUACAGUCCGACGAUCCAAGGGACUGCCAUUCACUUAAAGCAAAAUGGCUCCAAUUCCGUUUAUCUAUCGGUCGGUCGGUCUAUCUAUCUAUCCAUCUAUCUAUCUAUCUAUCUAUAAGUCUCGCUCUGUCACCCACAACAGAGGAUUGAGCAUCA
# B14: chr9:14812383:14812384:-_ENSMUSG00000031934_ENSMUST00000164273|mus_mus|mus_mus_mus_hu_True|88_98 (ssRNA)
# RNA: GGGAGUUCUACAGUCCGACGAUCAUAGCCCAGGUAGAUACAUGCCAACAGUAUAACGAUGAGUGUCAGCAGGCGGCAGCUAAUGUACUUGAUGAUUAAAUUAUUAGAAUUUUUCUUUGUCUUCAAGUACUGCUCCACAAUUGGCAACAGAGGAUUGAGCAUCA
# B15: chr12:39763582:39763583:-_ENSG00000139116_ENST00000544797|hu_mus|hu_hu_hu_mus_False|18_78 (ssRNA)
# RNA: GGGAGUUCUACAGUCCGACGAUCCUCUAGGAACUGGGCAUUCACUUUGAAUUCAGGAGCAGGAAGCCCGUUUUUAAUCGCUGAGGUCUUUUUCUCAUCAAUACUCUUGAACAGGUGUUUAACAGCUCGAGAGAUGAUGCCCUGCAACAGAGGAUUGAGCAUCA
# B16: chr17:65740002:65740003:+_ENSG00000130935_ENST00000581375|hu_hu|hu_hu_hu_mus_False|38_68 (ssRNA)
# RNA: GGGAGUUCUACAGUCCGACGAUCAACAAAUCUUUCUUCCCUGGACGAACAGGAAGAUUCAUAUUAACUUUAUAAAAUAUCCAUCAAGUUAGGUGUGUAAUAUCAGACUUUACUCCCAGCACUUUGGGAGGUGGAUCUCUGAGUCAACAGAGGAUUGAGCAUCA
# B17: chr4:130320001:130320002:+_ENSMUSG00000028580_ENSMUST00000105991|mus_mus|motif|central (ssRNA)
# RNA: GGGAGUUCUACAGUCCGACGAUCCGCAGCCUGGAGGAUUUCAUUGAAGACAAGCUGGCGCUCAGCUGCUGUGGCACGCUCGGGUUUCAGCUGAAUGAAUCUAGAGCCAUGCUGGUCUUGAGAAAAUUCCAUUAUAUGCCCAGCCAACAGAGGAUUGAGCAUCA
# B18: chr1:46159212:46159213:+_ENSG00000159596_ENST00000372025|hu_mus|hu_hu_hu_mus_True|8_48 (ssRNA)
# RNA: GGGAGUUCUACAGUCCGACGAUCUCUGAUCCCUCCCAAGAAAGCUAGGAAACCGGCUCCAUAAGCCAUCUGAGUGAAAGCUAGGACGGGAAUAUAAGACUUUGUUAUUACCAUGAGAAGUGGGGGAGCAACGAAGGGGAUUAACAACAGAGGAUUGAGCAUCA
# B19: chr13:100192331:100192332:-_ENSMUSG00000052727_ENSMUST00000064762|mus_hu|FALSE|FALSE (ssRNA)
# RNA: GGGAGUUCUACAGUCCGACGAUCGCAAAUGAUUAAAUCUUAAUUAAAUGAGUAUUGGAAAGCUCCUAGACUGCAUAAGCUAUUGGAGACACUUAAAACAUUCAUAUACACUGGGGAAACCAUUCACUAUGAUAUGUAACGUUACAACAGAGGAUUGAGCAUCA
# B20: chr16:32084594:32084595:-_ENSMUSG00000023791_ENSMUST00000096109|perfect_dup|FALSE|FALSE (ssRNA)
# RNA: GGGAGUUCUACAGUCCGACGAUCAGGAAGCAUUUAACUACAUAAAACUUAUAGGGAAAAAUGGCCAUAUUUGAAAACUGCUACAAGGAUCAAUGUAGAGCACAGGAUUGUAAUGAGCAGAGUCACAGAACAUACUAGAGAGGUCAACAGAGGAUUGAGCAUCA
# B21: chr5:80785125:80785126:-_ENSG00000145687_ENST00000509013|hu_hu|motif|central (ssRNA)
# RNA: GGGAGUUCUACAGUCCGACGAUCUGGCUGACUUCCUGGGACACCUCCAAGUGCCUGAAAGAACCCUGGUGGUACAGGACCGGCUGGCAUGCCAUCUCCUGGGGGAAUGUUUCCUAGCACUGGACUGGGAGCUGCUGCAGCACUCAACAGAGGAUUGAGCAUCA
# B22: chr3:57569730:57569731:-_ENSG00000168374_ENST00000303436|hu_mus|motif|central (ssRNA)
# RNA: GGGAGUUCUACAGUCCGACGAUCAUAUUCUACUGUUUCCACAUUAAAACCAAUGGUAGGAAUGGUGGUGACUAUUUCCCCGGAUUUCAGUUUAUACAGAAUUGUCGUCUUGCCAGCAGCAUCCAAUCCAACCAUCAAAAUGCGCAACAGAGGAUUGAGCAUCA
# Molecular target: T1, UNK ZnF1-3
# Test: nsRBNS (natural sequence RNA bind-n-seq); RBNS binding buffer (assumed for nsRBNS): 25 mM Tris pH 7.5, 150 mM KCl, 3 mM MgCl2, 0.01% Triton X-100, 500 ug/ml BSA, 20 U/ml SUPERase-In, 4 C; UNK is unkempt and MSI1 is Musashi-1; names of the RNAs are library labels; protein concentration not given here; high values mean tight binding
row,Binder,binding signal
1,B1,0.538 enrichment R
2,B2,1.55 enrichment R
3,B3,1.31 enrichment R
4,B4,0.446 enrichment R
5,B5,0.556 enrichment R
6,B6,1.22 enrichment R
7,B7,0.923 enrichment R
8,B8,0.983 enrichment R
9,B9,0.551 enrichment R
10,B10,1.59 enrichment R
11,B11,0.957 enrichment R
12,B12,0.572 enrichment R
13,B13,0.842 enrichment R
14,B14,1.67 enrichment R
15,B15,1.53 enrichment R
16,B16,0.93 enrichment R
17,B17,1.92 enrichment R
18,B18,1.48 enrichment R
19,B19,1.61 enrichment R
20,B20,1.72 enrichment R
21,B21,0.959 enrichment R
22,B22,0.76 enrichment R
